SMILES strings stand for the structures. Screen size: about 50,000 compounds; about 800 (1.6%) showed an effect of 50% or more. Some of the results follow.

The text below walks through data of PubChem BioAssay AID1240 (Sanford-Burnham Center for Chemical Genomics, 2008).

In the experiment the target is Bcl-2-like protein 10 (Homo sapiens) (UniProt Q9HD36). In words: TR3 peptide-Bcl-B binding displacers, biochemical primary FP assay, phenotype converters (AID 1240).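 Also: 0% = Bcl-B with tracer peptide and DMSO and 100% = tracer peptide lacking Bcl-B.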 The following applies: GST-Bcl-B / FITC-TR3 peptide fluorescence polarization; stronger effect = higher value; compound at 3.75 mg/L. (Polarisation of emitted light reports the rotation of a fluorescent probe.)
Sequence of UniProt Q9HD36 (Q9HD36 whole entry, looked up): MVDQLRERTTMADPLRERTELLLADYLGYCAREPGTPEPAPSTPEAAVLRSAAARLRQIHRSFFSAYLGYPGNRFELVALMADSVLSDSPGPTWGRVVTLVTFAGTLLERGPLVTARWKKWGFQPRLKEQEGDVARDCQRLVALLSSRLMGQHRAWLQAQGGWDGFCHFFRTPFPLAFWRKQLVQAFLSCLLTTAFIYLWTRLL
As to `Cc1cc(C)c(OCCCCn2ccnc2)c(C)c1`, the displacement is -2%. Regarding `COc1ccc(NC(=O)c2ccc(-c3ccccc3)cc2)cc1`, the displacement is -0.3%. `CCSc1sc(CC)cc1CN1C(=O)c2ccccc2C1=O`: the displacement was -7.5%.

Turning to `O=c1c2c3c(sc2ncn1/N=C/c1cc([N+](=O)[O-])ccc1O)CCCC3`, the displacement stood at 2.3%. As to `COc1ccc(S(=O)(=O)N(CC(=O)Nc2cccc3ccccc23)c2ccc(C)cc2)cc1OC`, the displacement turned out to be 9.6%.

Take `Cc1cccc(OCCOc2ccc(/C=N/N3C(=O)CSC3=S)cc2)c1`: the displacement is -2.6%. Consider `N#C/C(=C/c1ccc(I)o1)C(=O)Nc1ccc(Cl)c(Cl)c1`, for which the displacement was -13%. In the case of `CC(/C=C/c1ccco1)=N\Nc1nnc2c(n1)[nH]c1ccccc12`, the displacement came to 21.6%. For `COc1ccc(C(=O)NC(N2CCCCC2)C(Cl)(Cl)Cl)cc1OC` (configuration not stated) the value was -3.2%. For `Oc1ccc2ccccc2c1/C=N/Nc1nn[nH]n1` the value was -7.8%; for `O=[N+]([O-])c1ccc(S(=O)(=O)NCCc2nc3ccccc3[nH]2)cc1`, 13.7%; for `CC(=O)Nc1ccc(S(=O)(=O)n2nc(C)c(Sc3ccccc3)c2C)cc1`, 8.9%.

Turning to `COc1cc(C)c(/C(C)=N\Nc2nc(C)c(C(C)=O)s2)cc1OC`, the displacement is -5.1%. The figure for `COc1ccc(Br)cc1CN1CCN(C(=O)CC(C)C)CC1` is -29.1%; for `O=C(Nc1ccc(S(=O)(=O)N2CCc3ccccc32)cc1)c1ccccc1[N+](=O)[O-]` it is 7.1%; for `CCOC(=O)N1N=C(c2ccc(F)cc2)CC1(O)C(F)(F)F` (configuration not stated) it is 5%. The figure for `COCCCNC(=O)COc1ccc(Cl)cc1C` is -5.9%; for `COc1cc(NC(=O)c2ccc(Cl)c([N+](=O)[O-])c2)ccc1NC(=O)c1ccco1` it is -1.2%. Turning to `CCOc1cc(/C=C2\C(=O)N(c3ccc(S(N)(=O)=O)cc3)N=C2C)cc(Cl)c1O`, the displacement is -84.7%. For `O=C(CN(c1cccc(Cl)c1)S(=O)(=O)c1ccccc1)Nc1ccc2ccccc2c1`, the displacement was 12.2%.

In the case of `NS(=O)(=O)c1ccc(-c2ccc(/C=c3/sc4nc5ccccc5n4c3=O)o2)cc1`, the displacement came to 48.2%. The figure for `CC(C)COc1ccc2[nH]c3c(c2c1)CCCC3=O` is 12.2%. For `Cc1cccc(N2CCN(C(=S)c3ccc(N(C)C)cc3)CC2)c1` the value was 9%; for `CCCc1cc(C(=O)OC)c(NC(=O)C2C3CCC(C3)C2C(=O)O)s1` (configuration not stated), -9%; for `O=[N+]([O-])c1ccc(N2CCCC2)cc1NCCOc1ccc(Cl)cc1`, 10.6%. For `Cc1cc(Cl)ccc1OCCCC(=O)Nc1ccc2c(c1)OCCO2` the value was -0.6%; for `CS/C(N)=N/N=C/c1cc(C)ccc1O`, -10.8%.

For the molecule `Cc1cc(C=O)c(C)n1-c1ccc(Sc2ccc([N+](=O)[O-])cc2)cc1`, the displacement was -10.4%. The figure for `COc1ccc(/C=C/C(=O)c2c(-c3ccccc3)c3cc(Br)ccc3[nH]c2=O)cc1` is 3%; for `Cc1nnc(N/N=C/c2c(O)ccc3ccccc23)n1N` it is 0.3%; for `COc1ccc(/C(C)=N/NC(=O)c2n[nH]c3c2CCCC3)cc1OC` it is -6%. Take `COc1ccccc1N=Cc1c(O)n(-c2ccc(F)cc2)c(=O)[nH]c1=O`: the displacement is -24.6%. With `CS(=O)(=O)N(CC(=O)Nc1ccc(I)cc1)c1cccc(Cl)c1`, the displacement is 13.1%. Consider `O=[N+]([O-])c1cc(C(F)(F)F)ccc1-n1nnc2ccccc21`, for which the displacement is 10.9%. The figure for `CCCOc1ccc(/C=C/C(=O)Nc2ccc(S(=O)(=O)Nc3ncccn3)cc2)cc1OC` is 12.9%.

As to `O=C(Nc1c[nH]c(=O)[nH]c1=O)c1cccc(Br)c1`, the displacement stood at 13.8%. For `O=S(=O)(Nc1ccc(Cl)c(Cl)c1)c1ccc2ccccc2c1`, the displacement was found to be 3.4%. For `CC(C)(C)c1cc(N2C(=O)C(=O)/C(=C(/O)c3ccc(Cl)cc3)C2c2ccc([N+](=O)[O-])cc2)no1` (configuration not stated) the value was -57.1%; for `CCOc1ccc(NC(=O)/C(=C/c2ccccc2)c2ccccc2)cc1`, 10.5%. Turning to `Cc1ccc(S(N)(=O)=O)cc1NC(=O)CCCOc1ccc(Cl)cc1Cl`, the displacement was determined as 1.2%. For `O=C1c2ccc([N+](=O)[O-])cc2C(=O)C1c1ccc2ccccc2n1` (configuration not stated) the value was 7.6%; for `COc1ccc(N(CC(=O)Nc2ccc(C)c(C)c2)S(=O)(=O)c2ccc(C)cc2)cc1`, -6.2%; for `Cc1ccc(NC(=O)c2oc3ccc(Cl)cc3c2C)c([N+](=O)[O-])c1`, -4.5%. As for `COc1ccc(OC)c(/C=N/NC(=O)c2ccc[n+](Cc3ccccc3)c2)c1`, the displacement was 0%. Turning to `COc1ccc(C2C(C(C)=O)=C(O)C(=O)N2CCN(C)C)c(OC)c1` (configuration not stated), the displacement was -4.8%.

Regarding `O=[N+]([O-])c1cccc(-c2nnc(-c3ccc(Br)o3)o2)c1`, the displacement is -11.6%. The figure for `CC(C)(C)CC(C)(C)NC(=O)CSc1nc2ccccc2s1` is -21.6%. For `COc1cccc(C2NC(=O)NC(C)=C2C(=O)Nc2ccccc2Cl)c1` (configuration not stated) the value was -15.9%; for `Cc1ccc(NC(=O)C2CC(=O)N(c3ccc(Br)cc3)C2)cc1C` (configuration not stated), -3.7%; for `COC(=O)C1=C(C)N(Cc2ccccc2)C(=O)/C1=C\c1ccc(C(=O)O)cc1`, 5.6%. In the case of `O=S(N1CCCCC1)C12CC3CC(CC(C3)C1)C2` (configuration not stated), the displacement turned out to be 4.7%.

`CC1=C(C(=O)Nc2cccc(C)c2)C(c2cc(Br)ccc2O)NC(=O)N1` (configuration not stated): the displacement is 6.5%.

On to `Cc1ccc(OCC(=O)NCc2ccc3c(c2)OCO3)cc1`, for which the displacement amounted to 11%. For `O=C(NCc1ccc(Cl)c(Cl)c1)c1cc2ccccc2oc1=O` the value was 10.5%; for `O=c1[nH]c(=O)n(Cc2ccccc2)cc1I`, 3.3%; for `COc1cc2c(cc1NC(=O)c1c(-c3c(F)cccc3Cl)noc1C)oc1ccccc12`, -18.9%. For `Cc1cccc(NC(=O)c2cnccn2)c1` the value was 30.9%; for `CCCN(CCC)CCCNC(=O)C(=O)NCc1ccco1`, 14.5%; for `Cc1cc(C(=O)Nc2ccccn2)ccc1[N+](=O)[O-]`, 0.7%.

As to `COCCOC(=O)C1=C(C)NC2=C(C(=O)CCC2)C1c1ccc(OCc2ccccc2)c(OC)c1` (configuration not stated), the displacement is -0.5%. The figure for `CCOc1ccccc1N(CC(=O)NC(C)c1ccccc1)S(=O)(=O)c1ccccc1` (configuration not stated) is 1.3%; for `O=C(/C=C/c1ccc(F)cc1)Nc1cccc(Br)c1` it is 23%; for `COc1ccc(/C=N/N2C(=O)c3ccccc3NC2c2ccc(OC)cc2)cc1` (configuration not stated) it is -7.7%.

In the case of `CCOc1ccc(/C=N/N2CCN(Cc3ccc(Cl)cc3)CC2)cc1OC`, the displacement is 10.1%. Take `COc1ccccc1CC(=O)Nc1cc([N+](=O)[O-])ccc1OC`: the displacement came to 4.4%. For the molecule `COC(=O)C1=C(C(=O)OC)SC(=C2C(=S)C(C)(C)N(C(=O)CN3C(=O)CCC3=O)c3ccccc32)S1`, the displacement was -11.9%. For `COc1ccc(-c2nnc(NC(=O)c3ccc(C)cc3)s2)cc1OC` the value was 1.9%. The figure for `CCC(=O)N1c2ccccc2NC2=C(C(=O)CC(c3ccccc3)C2)C1c1ccc(OC)cc1` (configuration not stated) is 2.3%. The figure for `CCOC(=O)c1[nH]c(C)c(C(=O)N/N=C/c2ccc(-c3ccc(Cl)cc3)o2)c1C` is 7.2%. Take `Cc1nc(-c2ccccc2)nc(N/N=C/c2c(F)c(F)c(F)c(F)c2F)c1C`: the displacement was -7.1%. Turning to `COc1ccc2c(c1OC)C(=O)OC2Nc1cccc([N+](=O)[O-])c1` (configuration not stated), the displacement was found to be 1%.

In the case of `NC(=O)/C=C\C(=O)Nc1cccc(C(F)(F)F)c1`, the displacement was -2.5%. The figure for `CCOC(=O)c1ccccc1NC(=O)Cc1cccs1` is 10.2%.

As for `CCC(C)C1C(C#N)=C(N)Oc2n[nH]c(-c3ccccc3)c21` (configuration not stated), the displacement was -7.8%.

In the case of `Cc1cc(Cl)ccc1OCCN1CCOCC1`, the displacement was -1.9%. For `O=C(NCc1cccnc1)C(=O)N1CCCCC1` the value was -1.4%; for `CCN1C(=O)NC(c2ccc(Br)cc2)C(C(=O)OCCOC)=C1C` (configuration not stated), -7%. For the molecule `CCOC(=O)c1c(NC(=O)COc2ccc(Cl)cc2)sc2c1CCN(C(=O)OCC)C2`, the displacement was -1.7%. For `CCOc1cc(OCC)cc(C(=O)Nc2cccc(Cl)c2Cl)c1` the value was 8.5%. For `Cc1ccc2oc(-c3ccc(NC(=O)c4ccc(Br)o4)cc3)nc2c1`, the displacement amounted to 42%.

`c1ccc2c(-c3csc(N4CCOCC4)n3)cccc2c1`: the displacement is 13.4%.

For the molecule `Cc1ccc(N2C(=O)S/C(=C\c3ccc(F)cc3)C2=O)cc1`, the displacement is -5.5%. For `COc1ccc(NC(=O)c2ccc(Cl)c(Cl)c2)cc1OC` the value was 2.2%; for `Cc1c(C(=O)Nc2ccc(Cl)cn2)cccc1[N+](=O)[O-]`, 1.9%; for `NS(=O)(=O)c1ccc(-c2ccc(/C=N/Nc3ccccc3)o2)cc1`, -1%. The figure for `O=C(CSc1nsc(SCC(=O)Nc2ccc(Cl)c(Cl)c2)n1)Nc1ccc(Cl)c(Cl)c1` is 8.7%. In the case of `CC1(C)CC(=O)C(C(C2=C(O)CC(C)(C)CC2=O)c2cccs2)C(=O)C1` (configuration not stated), the displacement is -17.9%. `COc1ccc(Cl)cc1S(=O)(=O)N1CCC(Cc2ccccc2)CC1`: the displacement amounted to 10.3%. Turning to `CCOC(=O)c1sc(NC(=O)/C=C/c2ccc(F)cc2)c(C(=O)OCC)c1C`, the displacement was found to be 10.6%.

In the case of `CC1=C(C(=O)OCCc2ccccc2)C(c2cccc([N+](=O)[O-])c2)C2=C(CCCC2=O)N1` (configuration not stated), the displacement was determined as 13.4%. For `Cc1ccc(-c2csc(NC(=O)c3cccc([N+](=O)[O-])c3)n2)cc1` the value was 3.2%; for `COCc1cc(C)nc(N/N=C/c2ccc(Cl)cc2Cl)c1C#N`, 2.7%; for `Cc1ccc2nc(Sc3ccccc3)c(C#N)c(=O)n2c1`, 4.5%.

`COc1cc(C2Nc3ccccc3C(=O)N2c2ccc(C)cc2)cc(OC)c1OC` (configuration not stated): the displacement was -4.5%. With `NC(=O)NC(c1ccccc1)c1ccc(Br)cc1` (configuration not stated), the displacement turned out to be 2.2%.

On to `CCOC(=O)CCNC(=O)/C=C/c1ccco1`, for which the displacement is 1.8%. For `O=[N+]([O-])c1ccccc1S(=O)(=O)Nc1ccc(S(=O)(=O)Nc2nccs2)cc1` the value was -1.1%; for `COc1ccc2c(C)c(C)c(=O)oc2c1C`, 8.7%; for `Cc1ccccc1OCCOc1ccccc1/C=c1\sc2nc3ccccc3n2c1=O`, 1.7%. Turning to `COC(=O)c1cc(NC(=O)C(C)Oc2ccc(Cl)cc2C)cc(C(=O)OC)c1` (configuration not stated), the displacement is -11%. `Cc1ccc(Cl)cc1NC(=O)CSc1nnc(SCC(=O)Nc2cc(Cl)ccc2C)s1`: the displacement turned out to be 7.6%. For the molecule `Cn1cnc2cc(Nc3nnc(-c4ccc(Cl)cc4)c4ccccc34)ccc21`, the displacement stood at 4.6%.

As to `CCC(CC)C(=O)Nc1ccccc1[N+](=O)[O-]`, the displacement is -6.9%. For `CCN(CC)S(=O)(=O)c1ccc(NC(=O)c2cccc(C)c2)cc1` the value was -2.1%; for `CC(C)(C)c1ccc(OCCN2CCCC2)cc1`, 4.2%. Consider `O=c1c2ccccc2c(-c2ccccc2)nn1-c1cc([N+](=O)[O-])ccc1N1CCOCC1`, for which the displacement is 0.1%. For `CCOc1ccccc1NC(=O)CN(c1ccc(Oc2ccccc2)cc1)S(C)(=O)=O`, the displacement was 3.2%.
